The list shows a part of the results. Single values of this set are uncertain. Values with irradiation are relative to irradiated vehicle.

The subject of the experiment is A549-Dual. Briefly: ISRE reporter (Lucia luciferase) activity, viability-corrected, relative to vehicle (fold change vs vehicle); higher = more activation of STING-IRF / NF-kB immune response reporter. As to conditions: 10 µM; irradiation: none.
`CCN(C)C(=O)Oc1cccc(C(C)N(C)C)c1.O=C(O)C(O)C(O)C(=O)O` (stereo not given) [Rivastigmine Tartrate]: the ISRE reporter was determined as 0.641.

`Cc1cccc(C(C)c2cnc[nH]2)c1C.Cl` (stereo not given) [Dexmedetomidine HCl]: the ISRE reporter stood at 0.538.

Turning to `CC(=O)OCC1=C(C(=O)O)N2C(=O)C(N)C2SC1` (stereo not given) [7-Aminocephalosporanic acid], the ISRE reporter is 0.94.

`Cc1cccc(Cc2c[nH]cn2)c1C.Cl` [Detomidine HCl] showed an ISRE reporter of 0.771.

Compound `CCC1(c2cccc(O)c2)CCCCN(C)C1.Cl` (stereo not given) [Meptazinol HCl] registered an ISRE reporter of 0.961.

As to `COc1ccc(C(CN(C)C)C2(O)CCCCC2)cc1` (stereo not given) [Venlafaxine], the ISRE reporter was found to be 0.664.

For `NCC(CC(=O)O)c1ccc(Cl)cc1` [(R)-baclofen], the ISRE reporter turned out to be 0.655.

In turn, `CC[N+](C)(CC)CCOC(=O)C(O)(c1ccccc1)c1ccccc1.[Br-]` [Methylbenactyzine Bromide] gave an ISRE reporter of 0.646.

Compound `Br.CN1C2CC(OC(=O)C(CO)c3ccccc3)CC1C1OC12` (stereo not given) [Scopolamine HBr] had an ISRE reporter of 0.974.

For `Cl.N=C(N)NN` [Aminoguanidine hydrochloride], the ISRE reporter turned out to be 0.764.

For `CN1C2CCC1CC(OC(=O)C(CO)c1ccccc1)C2.CN1C2CCC1CC(OC(=O)C(CO)c1ccccc1)C2.O.O=S(=O)(O)O` (stereo not given) [Atropine sulfate monohydrate], the ISRE reporter worked out at 0.866.

As to `CCC12C=CCN3CCC4(c5ccc(OC)cc5N(C)C4C(O)(C(=O)OC)C1OC(C)=O)C32` (stereo not given) [Vindoline], the ISRE reporter was found to be 0.715.

Compound `CCCCCN(C)CCC(O)(P(=O)([O-])O)P(=O)(O)O.[Na+]` [ibandronic acid] registered an ISRE reporter of 0.825.

In turn, `CCC(COC(=O)c1cc(OC)c(OC)c(OC)c1)(c1ccccc1)N(C)C` (stereo not given) [Trimebutine] returned an ISRE reporter of 0.731.

As for `C[N+]12CCC(CC1)C(OC(=O)C(O)(c1ccccc1)c1ccccc1)C2.[Br-]` (stereo not given) [Clidinium Bromide], the ISRE reporter is 0.725.

Turning to `CC1OC(OC2C(O)C(O)C(O)C(O)C2O)C(N)CC1NC(=N)C(=O)O.Cl` (stereo not given) [Kasugamycin hydrochloride], the ISRE reporter was 0.607.

`O=[N+]([O-])C(Br)(CO)CO` [Bronopol]: the ISRE reporter came out at 0.753.

Take `Nc1nc(N)nc(NC2CC2)n1` [Cyromazine]: the ISRE reporter worked out at 0.838.

Compound `NCCc1ccc(O)cc1` [Tyramine] returned an ISRE reporter of 0.808.

As for `CCOC(=O)Nc1ccc(NCc2ccc(F)cc2)cc1N.Cl.Cl` [Retigabine 2HCl], the ISRE reporter came to 0.712.

For `C=CCN1CCC23c4c5ccc(O)c4OC2C(=O)CCC3(O)C1C5.Cl` (stereo not given) [Naloxone HCl], the ISRE reporter was found to be 0.564.

In the case of `CC(=O)c1c([O-])cc(C)oc1=O.[Na+]` [Sodium dehydroacetate], the ISRE reporter worked out at 0.882.

`O=c1ccc2ccc3occc3c2o1` [Isopsoralen] displayed an ISRE reporter of 0.64.

The compound `Oc1ccc(Cl)cc1Cc1cc(Cl)ccc1O` [Dichlorophene] returned an ISRE reporter of 0.269.

Take `C#CC1(OC(=O)CCCCCC)CCC2C3CCC4=CC(=O)CCC4C3CCC21C` (stereo not given) [Norethisterone Enanthate]: the ISRE reporter came out at 0.111.

(Values after the supplement of paper PMC9174493.)
